The results in this text go back to PMC8263776.

Amino acid sequences for entries named in this document (tags omitted).
UniProt P15384: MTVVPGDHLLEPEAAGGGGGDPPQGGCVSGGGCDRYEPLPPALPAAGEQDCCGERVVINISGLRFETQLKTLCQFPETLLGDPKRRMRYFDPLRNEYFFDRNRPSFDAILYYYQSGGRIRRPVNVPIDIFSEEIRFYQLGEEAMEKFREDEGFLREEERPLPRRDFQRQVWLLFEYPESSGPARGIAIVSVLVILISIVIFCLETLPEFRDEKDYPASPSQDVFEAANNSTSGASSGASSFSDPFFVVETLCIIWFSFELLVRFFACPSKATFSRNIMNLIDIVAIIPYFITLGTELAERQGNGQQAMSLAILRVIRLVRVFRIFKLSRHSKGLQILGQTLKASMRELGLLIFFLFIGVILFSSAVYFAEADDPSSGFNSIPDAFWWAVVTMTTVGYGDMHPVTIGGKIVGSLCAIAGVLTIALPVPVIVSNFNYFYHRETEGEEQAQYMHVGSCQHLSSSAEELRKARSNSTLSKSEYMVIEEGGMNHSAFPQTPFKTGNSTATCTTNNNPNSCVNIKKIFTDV

One assay deals with Kv1.3-YFP (rat) (UniProt P15384). As to the kind of experiment: FRET or BRET; acceptor photobleaching in fixed HEK-293 cells, CFP donor and YFP acceptor. (In general: Bioluminescence resonance energy transfer reports proximity on the nanometre scale.)
In the next assay the target is T1, KCNE4-CFP (mouse) (UniProt Q9WTW3).
T1 sequence: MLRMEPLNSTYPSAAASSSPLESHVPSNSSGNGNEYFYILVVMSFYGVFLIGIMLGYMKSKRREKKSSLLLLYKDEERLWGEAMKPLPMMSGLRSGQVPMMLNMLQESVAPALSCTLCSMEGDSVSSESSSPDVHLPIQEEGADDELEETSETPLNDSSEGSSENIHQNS
As to the kind of experiment: co-IP; KCNE4-CFP and KCNE4-HA in HEK-293 lysates in the presence or absence of co-expressed Kv1.3; IP with anti-tag antibody, blots against Kv1.3, KCNE4, GFP or HA.

These are yes or no findings as the source states them, for the method shown. Binding seen in cells or lysates may run through a third protein. Some binding calls cover weakened binding; strength is not graded here. For some assays here: Tags and fused reporters may be left off the sequences shown.

Consider Kv1.3-CFP (from UniProt P15384 1-525), for which the binding result with Kv1.3-YFP (rat) was “binds”.
Consider Kv1.3 (from UniProt P15384 1-525), for which the binding result in the assay with KCNE4-CFP (mouse) is recorded as “binds”.
